# ± gives the standard deviation of the averaged measurements. This is one part of the list.
# Tested on: PfAP2-LT AP2 domain (GST-tagged)
# Assay: gcPBM binding intensity (ln(normalized median fluorescence intensity)); higher = stronger DNA binding
# Summary of the method: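 GST-tagged P. falciparum DNA-binding domains produced in E. coli were incubated for 1 h on an Agilent 4 × 180k array of primer-extended double-stranded 36-bp intergenic genomic probes with negative controls. Binding intensity is the highest Masliner-normalised natural-log median intensity across replicate spots of either probe orientation, with bound protein detected by Alexa488 anti-GST antibody at 488 nm.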
row,Sequence,gcPBM binding intensity (ln)
1,ATATCAAATTCTGAAACACACAAAATTACACCTCTA [CACACA_site169],8.91 ± 0.26
2,TAAAAATAGGAGTGTGTGCACATAAATTATATACTA [GTGCAC_site9405],9.34 ± 0.46
3,CAAAAATATTATTATAGTACATAAATAATATATTTT [XGTACX_site6902],8.52 ± 0.57
4,CACATACATAAATACACACACAAAATAATAAAATAA [CACACA_site5304],9.52 ± 0.46
5,TTACTTAATAGACACACACACAAAAAAAAAAAAAAA [CACACA_site6572],9.4 ± 0.51
6,AAACAATAAAAGATTACACACATATATAGCATATAT [CACACA_site1698],9.16 ± 0.35
7,TATACATAATATATATGTACATATATTCTTTATTTT [XGTACX_site4565],8.78 ± 0.42
8,ATATTTTTTACTATTACACACAAGGGATTATTATTT [CACACA_site3915],9.13 ± 0.38
9,TCAAATAATTTGTTGACACACACACCCACATACATA [CACACA_site8717],9.72 ± 0.25
10,ACCTTATAAAAAAAAAGTACATATATAAATAATAAA [XGTACX_site4338],8.57 ± 0.47
11,CTATAATATTAGTGCACACACAAAAATGTACTAAAC [CACACA_site6442],9.38 ± 0.33
12,AAGAAAAAAACAAAAAAAAAAAAAAAAATTCTTATT [TGCATGCA_negctrl_site504],8.24 ± 0.66
13,ACTAATGTAAAAGTTTGTACATATATTGAGAATTAT [XGTACX_site7439],8.71 ± 0.52
14,ATTTTTTTCCACTAGTGTACAAATTTTACATTGTGT [XGTACX_site5023],9.22 ± 0.54
15,ATAAAATAAAAGGAATGTACTTTTTTTATTGTAATT [XGTACX_site4372],8.44 ± 0.42
16,AACAAATACGGACACACACACACACTAGAAAAAAAA [CACACA_site4442],9.82 ± 0.29
17,AACAAATTGAAACAATAATTGGAAAAAAAAAAAAAA [CACACA_negctrl_site1145],8.54 ± 0.44
18,TAAAAAAAAACAGAAACACACATTATTCATATAGAT [CACACA_site7052],8.89 ± 0.43
19,GTTATAAATTTTTTTTTTTTTTTTTTTTTTTTTTTT [CACACA_negctrl_site848],8.71 ± 0.35
20,AAAAGCACCGTTCGTTGTACACTGAAACACTTTTGT [XGTACX_site199],9.05 ± 0.46
21,AGTTTCTATTTAGTGTGTACTTAAGAAAAATATCTC [XGTACX_site82],8.69 ± 0.35
22,AAATGTATATATGTATGTACATATATATATATATAT [XGTACX_site5778],9.76 ± 0.29
23,ATAAACTGAGTGGTTACACACAAAACCAATAATTTT [CACACA_site3478],9.14 ± 0.5

row,Sequence,gcPBM binding intensity (ln)
1,ATATATATATATATATGTACTCATATTTTATTATTT [XGTACX_site898],9.665 ± 0.078
2,TATTGATAATTTTATATATACATACATAAATAAATA [CACACA_negctrl_site1687],8.29 ± 0.4
3,TTTTCAATTTTTTATGAACACACAAAAAAAAAAAAA [CACACA_site8808],8.2 ± 0.45
4,TCGCAAATAAATTAATGTACACATATATATATATAT [XGTACX_site5145],9.21 ± 0.47
5,GCACTAAAAAAATAAACACACAGATTTATATAATAT [CACACA_site1381],8.97 ± 0.49
6,AATAAGTTATTATTTTGTACACATAAATAATACGTT [XGTACX_site814],8.69 ± 0.51
7,AAGGAACTATAATATACACACATAAGTGTACTTATA [CACACA_site7816],8.94 ± 0.4
8,ATATATGCATATATTTGTACACATTTTTTTACATAA [XGTACX_site4624],8.87 ± 0.42
9,AAAAAAACGTAAAAATGTACTTTTTGTATATAACCT [XGTACX_site7950],8.77 ± 0.5
10,AAACAAAATAAATATGAACACACACCGTTATGCCTT [CACACA_site8347],9.29 ± 0.39
11,AGGAAAATTATGAATGGTACAGAATATATTAGGAGA [XGTACX_site6282],8.89 ± 0.53
12,TATTTGTGGATTTTTACACACATTAATATATATATA [CACACA_site3375],8.9 ± 0.34
13,TTATAAAATAAACTTACACACATGAAATATTATATT [CACACA_site1945],8.74 ± 0.42
14,ACATAGATGCATATCACACATAATAATATTGTCGTA [CACACA_site4819],9.12 ± 0.43
15,TAAAGCGACATTTGGAAAATATATATCCTAGCATTT [CACACA_negctrl_site327],8.77 ± 0.39
16,TATTCGTGCAATAGTAGTACACTTAAAAATTATTCA [XGTACX_site269],8.61 ± 0.45
17,ATTCGTTATAAAATATGTACATAAATATATATATAT [XGTACX_site2819],8.89 ± 0.3
18,AAAATACACAGACACACACACATATAAATAAATATT [CACACA_site7871],9.79 ± 0.19
19,TAATATTTCGCACTGTGTACTGAAATATTTATATCG [XGTACX_site516],8.76 ± 0.36
20,GTAGACTGAAACCACACACACATATATATATATATT [CACACA_site605],9.8 ± 0.13
21,ATAATAAGACGATAAGGTACACAAAATGTTAATATA [XGTACX_site6984],9.06 ± 0.43
22,TATTCAAATTTCCACATACACACCTTGTAGATATAT [CACACA_site281],8.88 ± 0.43
23,AAGAAAAAAAGCAACACACGTACCAACACAATTATG [CACACA_site3133],9.51 ± 0.35

row,Sequence,gcPBM binding intensity (ln)
1,AAGACAAATTTTACATGTACAAATATATTACATATA [XGTACX_site7060],8.81 ± 0.27
2,AATAATAATAAAAATAAACACACATATATATGTATA [CACACA_site8928],8.94 ± 0.35
3,ATTTCTTTTGTTATAGTGCATAATATTTATGTACGT,8.9 ± 0.44
4,AAAGAAAGAAAGAAAAGTACTTAAACTTTTAAAAAT [XGTACX_site8531],8.54 ± 0.69
5,ATATTAATATATAGAAGTACTCACATGTTAATATAA [XGTACX_site7323],8.72 ± 0.47
6,TTAAATAAATAAATAACACACATATAAAAATAACGC [CACACA_site3266],9.2 ± 0.33
7,TAACTATCATGTATTACACACAATATTTATTATATA [CACACA_site2701],8.85 ± 0.47
8,GAATAATATGGACATACACACATATACATACATATA [CACACA_site2114],9.27 ± 0.39
9,TTATTTCATTCTTGAAGTACGTGAAAAATGAAAACA [XGTACX_site4089],8.44 ± 0.33
10,TTACCTTTATTGTATGAACACACATAAGCTGATACA [CACACA_site9334],8.87 ± 0.35
11,AAAAAAAAAAAAAGAGTGCAAACTATGATAATTTAA,8.82 ± 0.63
12,ACATATGAATATAATACACACTTGTATTATTAATAT [CACACA_site8546],8.94 ± 0.35
13,CCATTTTTTTTATACGCACACGTCATACTTTTAAAA [CACACA_site4988],9.19 ± 0.57
14,AAAATTTAATATAATGCACACATAAAAAAAAAAAAA [CACACA_site7923],8.85 ± 0.42
15,TATATATATACATATTGTACATGTGTATATTTTTTT [XGTACX_site361],8.92 ± 0.44
16,TTAGTTATTAAAAAAAGTACATAAGTAGATATCATC [XGTACX_site8712],8.7 ± 0.45
17,AATATATGTAATATATGTACTTAATTATATTTTAAT [XGTACX_site4382],8.66 ± 0.42
18,TATAAAATATAATTAGCACACATATATAAAATATAT [CACACA_site9355],8.77 ± 0.4
19,TACTAATATGATATATAAATATTGTTATATAATAAT [XGTACX_negctrl_site227],8.46 ± 0.5
20,TGAATACAAATTTACGCATGTAATTTCCAGAGGGAG [TGCATGCA_site769],8.75 ± 0.48
21,AAAATAAAAGAAAAAAGTACAAAATCAGATTAATTA [XGTACX_site8413],8.74 ± 0.54
22,ATATAAAACTATAATACACACATAAAATATATTATA [CACACA_site6588],8.94 ± 0.37
23,GTATATTTTTAAAGGTGTACTTTTTTTTTTTTTTTT [XGTACX_site721],8.55 ± 0.65

row,Sequence,gcPBM binding intensity (ln)
1,TATATTTATTTATTCTGTACTGAAGACAGTTATGTA [XGTACX_site8857],8.59 ± 0.59
2,TATATAATACAACATGCACACATATATATGTGAATC [CACACA_site8794],9.29 ± 0.29
3,ATAAATATATATATAGTGCATATAAGCCACCTTCAA [GTGCAC_site9628],8.75 ± 0.45
4,CGTAATAAAAACAAATGTACATGACCTGGACAGGTT [XGTACX_site6560],8.97 ± 0.47
5,ATTTATATATAATATACACACATATAATACCCATAT [CACACA_site4548],9.07 ± 0.27
6,TTTTTTAACTGTATGATGTTATATTAAAAATAAAAA [GTGCAC_negctrl_site463],7.92 ± 0.4
7,AACGCACGAGGACACACACACATATTTATATTTATA [CACACA_site6608],9.82 ± 0.41
8,ATTTAAAAAAAAAAAAAAAAAAAAAAAAAAAGAAAA [CACACA_negctrl_site722],8.15 ± 0.53
9,TAATCCTTTCAATATTGTACACATTTGTGTTAAGAA [XGTACX_site1275],8.66 ± 0.47
10,TATATTATGACCACCACACACCTATACACATAACAT [CACACA_site7199],9.45 ± 0.16
11,TTTAATATTAGCATATGTACACAAATCACACGGAAA [XGTACX_site2473],8.79 ± 0.36
12,ATATATTTTATATAATGTACATAAACCGCACACATA [XGTACX_site6061],9.3 ± 0.33
13,TTTCAAATTTAATACACACACAAGTATATATCTATC [CACACA_site7782],9.15 ± 0.48
14,TCATACGAAATATAAACACACATACAATAAATAAAT [CACACA_site5156],9.22 ± 0.36
15,ATAATATAAATACAAACACACAATTGCGTCCACATT [CACACA_site5039],9.28 ± 0.51
16,ATTTAATTTGTTCTTACACACACATATATATATATT [CACACA_site8310],9.6 ± 0.37
17,TCAAATATATAGAATACACACATGGATATAAGAAAT [CACACA_site4065],9.2 ± 0.4
18,GGACAAGAATAGTGCACATGCAATGTTATTTTTTAT [TGCATGCA_site450],9.06 ± 0.65
19,ATTATAACCATATACACACCCATATAAATAAATATA [CACACA_site6926],9.08 ± 0.28
20,CGTTTTAATAAGATCACACATATAATATATATATAT [CACACA_site5159],8.78 ± 0.23
